Data published in the supplement of paper PMC4967469.
A lower IC50 marks a more sensitive line; where the fit passes the top or lowest dose, that dose stands as a limit. AUC, from the same fit, is the share of area under the viability curve across the 256-fold dose range: 1 means no effect, lower means more sensitive. Any top dose called inferred was calculated from the reported fits.

Columns and labels:
Test in all cases: Viability of human cancer cell lines after 72 h of drug (GDSC screen)
HG-6-64-1 = compound: CCN1CCN(Cc2ccc(NC(=O)c3ccc(C)c(/C=C/c4cnc5[nH]ccc5c4OC)c3)cc2C(F)(F)F)CC1 [HG-6-64-1]; details: top dose 5.12 µM; top dose inferred
Experimental: (§1)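 Human cancer cell lines in 384-well plates, medium with 10% serum, drug for 72 h over a 256-fold dose range (nine 2-fold or five 4-fold steps up to the top dose). Adherent lines were fixed and stained with the nucleic acid dye Syto60, suspension lines read with resazurin; signal relative to control wells, capped at 0 and 100%. One two-parameter sigmoid per drug and line, fitted in a mixed model over all curves with the slope shared within a line.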

I-BET-762 = compound: CCNC(=O)C[C@@H]1N=C(c2ccc(Cl)cc2)c2cc(OC)ccc2-n2c(C)nnc21 [I-BET-762]; details: top dose 20 µM; top dose inferred
Experimental: as §1

PF-4708671 = compound: CCc1cncnc1N1CCN(Cc2nc3ccc(C(F)(F)F)cc3[nH]2)CC1 [PF-4708671]; details: top dose 10 µM; top dose inferred
Experimental: as §1

AV-951 = compound: COc1cc2nccc(Oc3ccc(NC(=O)Nc4cc(C)on4)c(Cl)c3)c2cc1OC [AV-951]; details: top dose 0.128 µM; top dose inferred
Experimental: as §1

MS-275 = compound: Nc1ccccc1NC(=O)c1ccc(CNC(=O)OCc2cccnc2)cc1 [MS-275]; details: top dose 5 µM; top dose inferred
Experimental: as §1

KIN001-244 = compound: O=C(NC(COc1ccc2[nH]c(=O)[nH]c2c1)c1ccccc1)c1cccn(Cc2ccc(F)c(F)c2)c1=O [KIN001-244]; details: top dose 20 µM; top dose inferred
Experimental: as §1

Cell Line	AUC (HG-6-64-1)	IC50 (HG-6-64-1)	AUC (I-BET-762)	IC50 (I-BET-762)	AUC (PF-4708671)	IC50 (PF-4708671)	AUC (AV-951)	IC50 (AV-951)	AUC (MS-275)	IC50 (MS-275)	AUC (KIN001-244)	IC50 (KIN001-244)
NEC8 (testis, adherent)	0.907	> 5.12 µM	0.512	1.34 µM	0.988	> 10 µM	0.99	> 0.128 µM	0.373	0.148 µM	0.835	10.5 µM
NH-12 (neuroblastoma, adherent)	0.845	4.37 µM	0.781	9.38 µM	0.962	> 10 µM	0.984	> 0.128 µM	0.981	> 5 µM	0.82	13.3 µM
NOMO-1 (acute myeloid leukaemia, suspension)	0.817	3.37 µM	0.471	1.03 µM	0.982	> 10 µM	0.98	> 0.128 µM	0.629	0.744 µM	0.658	3.67 µM
NOS-1 (osteosarcoma, adherent)	0.641	0.862 µM	0.657	3.78 µM	0.716	2.98 µM	0.758	0.0542 µM	0.405	0.161 µM	0.753	8.11 µM
P31-FUJ (acute myeloid leukaemia, suspension)	0.996	> 5.12 µM	0.987	> 20 µM	0.979	> 10 µM	0.996	> 0.128 µM	0.996	> 5 µM	0.984	> 20 µM
SCC-3 (B-cell lymphoma, suspension)	0.997	> 5.12 µM	0.876	10.9 µM	–	–	0.995	> 0.128 µM	0.234	0.0702 µM	0.935	17.3 µM
SIG-M5 (acute myeloid leukaemia, suspension)	0.683	0.898 µM	0.289	0.378 µM	–	–	0.993	> 0.128 µM	0.609	–	0.147	0.157 µM
SU-DHL-1 (anaplastic large cell lymphoma, suspension)	0.984	> 5.12 µM	0.995	> 20 µM	–	–	0.993	> 0.128 µM	0.62	0.608 µM	0.919	14.8 µM
SUP-B15 (lymphoblastic leukaemia, suspension)	0.236	0.0574 µM	0.641	3.01 µM	0.942	> 10 µM	0.857	0.0974 µM	0.631	0.708 µM	0.325	0.417 µM
TALL-1 (T-cell lymphoblastic leukaemia, suspension)	0.989	> 5.12 µM	0.95	> 20 µM	–	–	0.989	> 0.128 µM	0.915	> 5 µM	0.959	> 20 µM
UACC-812 (breast, adherent)	0.986	> 5.12 µM	0.931	> 20 µM	–	–	0.982	> 0.128 µM	0.99	> 5 µM	0.93	> 20 µM
